Results from PubChem BioAssay AID488969 (Vanderbilt High Throughput Screening Facility, 2010).
The full ranking holds about 110,000 compounds; the median of “z-score” is about -0.1, and the highest 2% start at about 2. The list shows a part of the results.

What follows are compounds tested against Metabotropic glutamate receptor 8 (Rattus norvegicus) (UniProt P70579) (assay: mGluR8 Gi/Go-coupled signaling modulation – cell-based, rat, thallium flux, HTS, primary screen (AID 488969)). Conditions: HEK293 rat mGluR8, GIRK (G protein-gated inwardly rectifying potassium channel) thallium flux, FluoZin2; at 10 µM; stronger effect = higher value; submaximal glutamate (EC20) added with thallium.
Sequence of UniProt P70579 (P70579 whole entry, looked up): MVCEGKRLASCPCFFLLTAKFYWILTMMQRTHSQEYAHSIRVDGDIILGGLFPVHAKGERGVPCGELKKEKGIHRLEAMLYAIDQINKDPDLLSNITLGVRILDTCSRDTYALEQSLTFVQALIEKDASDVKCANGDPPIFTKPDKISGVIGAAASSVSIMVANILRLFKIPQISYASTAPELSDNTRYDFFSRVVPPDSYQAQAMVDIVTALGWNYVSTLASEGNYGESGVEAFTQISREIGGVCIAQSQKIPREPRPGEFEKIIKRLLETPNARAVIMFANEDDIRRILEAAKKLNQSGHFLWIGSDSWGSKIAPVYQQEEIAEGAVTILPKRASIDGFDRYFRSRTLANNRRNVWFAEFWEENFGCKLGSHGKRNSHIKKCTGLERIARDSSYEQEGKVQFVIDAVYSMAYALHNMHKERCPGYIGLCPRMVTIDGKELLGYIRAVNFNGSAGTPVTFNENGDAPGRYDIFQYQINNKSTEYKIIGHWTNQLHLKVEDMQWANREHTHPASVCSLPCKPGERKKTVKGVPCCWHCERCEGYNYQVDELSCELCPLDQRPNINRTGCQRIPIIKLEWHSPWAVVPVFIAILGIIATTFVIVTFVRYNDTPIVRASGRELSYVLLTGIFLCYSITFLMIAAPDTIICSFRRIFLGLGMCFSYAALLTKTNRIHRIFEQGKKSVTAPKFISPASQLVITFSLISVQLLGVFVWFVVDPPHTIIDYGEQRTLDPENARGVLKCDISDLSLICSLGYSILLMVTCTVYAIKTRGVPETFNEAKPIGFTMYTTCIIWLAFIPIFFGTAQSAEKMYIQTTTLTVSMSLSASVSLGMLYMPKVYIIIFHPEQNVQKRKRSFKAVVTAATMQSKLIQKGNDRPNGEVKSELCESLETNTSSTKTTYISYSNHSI

Row | Compound | z-score
1 | COc1cccc(N(C(=O)c2cnccn2)C(C(=O)NC2CCCCC2)c2ccc(Cl)cc2)c1 (stereo unspecified) | -0.149
2 | Cc1cccn2cc(CCNC(=O)c3ccco3)nc12 | -0.115
3 | O=C(c1ccccc1)c1c2c(cc3sc4ccccc4[n+]13)-c1cccc3cccc-2c13 | 0.54
4 | Cc1nc(-n2ncc(C#N)c2N)c2c3c(sc2n1)CCC3 | 0.0974
5 | Cc1ccc(-n2c(C)nc3c(cnn3-c3ccc(C)c(C)c3)c2=O)cc1C | -0.308
6 | Cc1cc(C(F)F)n2nc(C(=O)NCc3ccccc3F)nc2n1 | -0.208
7 | COc1ccc2c(c1)C(C)=CC(C)(C)N2C(=O)C(C)N1C(=O)c2ccccc2C1=O (stereo unspecified) | 0.167
8 | CCOC(=O)c1c(C)[nH]c(C(=O)/C(C#N)=C/c2ccc(OC(F)F)c(OC)c2)c1C | -0.315
9 | CCOc1ccc(NC2C=CS(=O)(=O)C2)cc1 (stereo unspecified) | 0.106
10 | Cc1ccc(OCC(=O)Nc2ccccc2N2CCOCC2)c(C)c1 | 0.00977
11 | CCOc1ccc(NC(=O)C(C)Sc2nnc(C)n2C)cc1 (stereo unspecified) | -0.178
12 | O=C(CC1(O)C(=O)Nc2ccccc21)c1cccc(Br)c1 (stereo unspecified) | -0.094
13 | CC(C)(C)C(=O)/C=C/Nc1ccccc1O | -0.162
14 | COc1ccc(NC(=O)C2CCN(S(=O)(=O)c3c(C)noc3C)CC2)cc1Cl | -0.286
15 | Cc1ccc(C2=C/C(=C/c3cccs3)C(=O)O2)cc1 | -0.029
16 | CC1CCC(N2CCN(c3ncccn3)CC2)C1 (stereo unspecified) | -0.131
17 | Cc1c(CN2CCCCC2)c(O)n(CCCO)c(=O)c1C#N | 0.0291
18 | O=C(NC(C(=O)c1ccccc1)N1CCCCCC1)c1ccco1 (stereo unspecified) | -0.207
19 | Cc1ccc(NC(=O)c2cnn(-c3ccccc3)c2NC(=O)c2ccco2)cc1 | -0.217
20 | OC(COCC1COc2ccccc2O1)CN1CCCCC1 (stereo unspecified) | 0.068
21 | CCOc1ccc(N(CC(=O)Nc2cccc(Cl)c2)S(=O)(=O)c2c(C)noc2C)cc1 | -0.0972
22 | COc1cc(C=O)ccc1OCCOCCOc1cc(C)ccc1Cl | -0.212
23 | CCC(=O)N1CCc2cc(Br)cc(S(=O)(=O)N3CCCCCC3)c21 | -0.994
24 | CC(=O)c1ccc(OCC(O)CN2CCN(c3ccccn3)CC2)cc1 (stereo unspecified) | 0.331

Row | Compound | z-score
25 | Cc1ccc2c(c1)N(C(=O)CCC(=O)N1CCc3ccccc3C1)CCO2 | -0.377
26 | O=C(O)c1cc([N+](=O)[O-])ccc1Nc1ccccc1 | -0.608
27 | O=C(COC(=O)c1cccc(NS(=O)(=O)c2ccc(F)c(F)c2)c1)NC(=O)NC1CCCC1 | -0.651
28 | COC(=O)c1ccc(Nc2cc(C)nc3ncnn23)cc1 | 0.556
29 | CCOC(=O)c1c(NC(=O)C2COc3ccccc3O2)sc(C(C)=O)c1C (stereo unspecified) | -0.115
30 | CC(NC(=O)c1csc2ccccc12)C1CCCO1 (stereo unspecified) | 0.152
31 | CCCn1cc(S(=O)(=O)CC(=O)NC2CCCCC2)c2ccccc21 | 0.0487
32 | CCCc1cc(=O)oc2cc(OCc3nn[nH]n3)ccc12 | 0.0525
33 | COc1ccc2c(c1)[nH]c1c(=O)n(CC3CCCO3)cnc12 (stereo unspecified) | -0.0789
34 | COC(=O)c1cc(C#N)c(Oc2ccc(F)cc2)nc1C | -0.153
35 | CCOC(=O)c1oc2c(CN3CCN(C)CC3)c(O)ccc2c(=O)c1-c1ccccc1OC | 0.292
36 | Nc1ccccc1Nc1ccccc1 | -0.162
37 | CCC1SC2=NC(C)=C(C(=O)OC)C(c3ccc(C(=O)OC)cc3)N2C1=O (stereo unspecified) | -0.683
38 | Cc1cc(C)nc(Sc2nc(Cl)nc(N(c3ccccc3)c3ccccc3)n2)n1 | -0.47
39 | CCC(C)Nc1c([N+](=O)[O-])cc(C)cc1[N+](=O)[O-] (stereo unspecified) | -0.166
40 | Cc1ccc(NC(=O)c2oc(=O)c3ccccc3c2-c2ccccc2)c(C)c1 | -0.162
41 | O=C(O)c1[nH]c2ccccc2c1CC(=O)N1CCOCC1 | 0.571
42 | COc1ccc(C(=O)C(C)N(C(=O)c2ccc(Cl)cc2Cl)N2C(=O)C3C4C=CC(C4)C3C2=O)cc1 (stereo unspecified) | -0.146
43 | CCCc1ccc(C(=O)NNC(=O)c2ccc(Br)cc2)cc1 | 0.763
44 | O=C(CCNC(=O)OCc1ccccc1)NC1CCCCC1 | 0.0409
45 | Cc1ccc2nc3sc(C(=O)N4CCCc5ccccc54)c(N)c3cc2c1 | 0.484
46 | COc1ccc2[nH]c(=O)c(C(c3nnnn3C(C)(C)C)N(Cc3ccco3)CC3CCCO3)cc2c1 (stereo unspecified) | 0.22
47 | Cc1cc(C)cc(NC(=S)NCC2CCCO2)c1 (stereo unspecified) | -0.21
48 | Cc1oc2c(C)c3oc(=O)c4c(c3cc2c1C)CCC4 | -0.532

Row | Compound | z-score
49 | COC(=O)c1ccc(NC(=O)c2ccc3c(c2)OCO3)cc1 | -0.148
50 | COc1ccc(C2C(Oc3ccccc3C)C(=O)N2Cc2ccc(F)cc2)cc1OC (stereo unspecified) | -1.24
51 | CC(=O)c1ccc(NC(=O)C2CCCN2S(=O)(=O)c2cccc3cccnc23)cc1 (stereo unspecified) | -0.24
52 | CCCNC(=O)CNC(=S)N(Cc1cc(OC)c(OC)c(OC)c1)C1CCCC1 | -0.414
53 | CCn1c(SCCC(C)C)nnc1-c1c[nH]c2ccccc12 | -0.118
54 | Cc1cc(Br)ccc1SCC(=O)OCC(=O)NCc1ccc2c(c1)OCO2 | -0.532
55 | CCCCOC(=O)Cn1c(=N)n(CCN(CC)CC)c2ccccc21 | -0.322
56 | CCNC(=S)N/N=C/c1cccc(C)c1 | 0.00977
57 | Cc1cccc(Nc2nc(N)c([N+](=O)[O-])c(N3CCCC(C)C3)n2)c1 (stereo unspecified) | -0.0648
58 | COc1ccc(NC(=S)Nc2cc(C)cc(C)n2)cc1OC | -0.482
59 | COc1cccc(C2C(C(=O)c3cc4cccc(OC)c4o3)=C(O)C(=O)N2c2cc(C)on2)c1OC (stereo unspecified) | -0.133
60 | COc1ccc(-c2nc(C#N)c(NCc3cccnc3)o2)cc1OC | -0.191
61 | O=C(Nc1ccc(OC(F)(F)F)cc1)Nc1cccc([N+](=O)[O-])c1 | -0.447
62 | Cc1nn(Cc2ccc(Cl)cc2)c(Cl)c1/C=N/NC(=O)CNc1ccccc1F | -0.0516
63 | CCCCNC(=O)COC(=O)c1cc(C)nc2ccccc12 | -0.0508
64 | CC(C)CC(=O)NC1(C(F)(F)F)C(=O)N(Cc2ccccc2)C2=C1C(=O)CC(C)(C)C2 (stereo unspecified) | -0.0536
65 | COc1ccc2c(C)cc(SCC(=O)Nc3ccc(Cl)cn3)nc2c1 | -0.00668
66 | Cc1cn(S(=O)(=O)c2ccc(Br)c3ccccc23)cn1 | 0.109
67 | CCCc1nc(NC2CCCCC2)c(C#N)c2c1COC(C)(C)C2 | -1.49
68 | O=C1CSC(c2ccccc2)N1CC12CC3CC(CC(O)(C3)C1)C2 (stereo unspecified) | -0.241
69 | CCc1nc2ccc(C(=O)O)cc2nc1CC | 0.51
70 | CCN(CC)c1cc(C)c2cc(NC(=O)CNC(C)=O)ccc2n1 | 1.43
71 | COc1ccc(C)cc1NC(=O)CCCN1C(=O)CCC1=O | -0.23
